PubChem BioAssay AID588855 (National Center for Advancing Translational Sciences (NCATS), 2011)
The whole screen tested about 410,000 compounds, of which about 5,000 (1.2%) were called active. This list was built around the results that the source calls inconclusive (neither active nor inactive); the mix of calls is not that of the screen. Calls come from the whole dose curve; as a rule, active = well fitted inhibition curve with a large enough effect; inconclusive = small, poorly fitted or top-dose-only effect; inactive = no such curve, though single readings can be large or run the other way. Where the call is inconclusive, the potency comes from a doubtful curve fit.

Assay: qHTS for Inhibitors of TGF-b; note: nearly all actives have a fitted effect of over 65% in size
Conditions: HepG2 CAGA-GFP TGF-b/SMAD3 reporter, GFP fluorescence, 18 h, TGF-beta stimulated, 500 pg/mL final; series mostly up to 46.1 µM; activity, negative = inhibition: at the top concentration
Method in brief: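 HEPG2 CAGA-GFP reporter cells (1000/well, DMEM with 1% FBS) received compounds, then recombinant TGF-beta at 500 pg/mL final for 18 hours at 37 degrees C. Per-cell GFP summed per well was normalised to unstimulated and stimulated DMSO controls before curve fitting.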
% is set by controls: 0 for no effect and ±100 for the full control effect; potency is the fitted concentration of half-maximal effect; tags give direction and shape of the fitted curve.

Structure (SMILES)	Potency	activity, negative = inhibition
O=C(NCCCn1ccnc1)c1ccc(Cl)c(S(=O)(=O)N2CCOCC2)c1	inconclusive: 3.16 µM [inhibitor, partial curve, poor fit]	
c1ccc(C2=Nc3c(ccc4ccccc34)C(c3ccncc3)=NN2)cc1	inconclusive: 22.4 µM [inhibitor, single point]	
CCOc1ccc(N(CC(=O)NCc2ccccc2C)S(C)(=O)=O)cc1		inactive: -4.03%
C=CCNc1nc(-c2ccc(O)c(C(N)=O)c2)cs1		inactive: -12%
Cc1cc(C(C)(C)C)c(O)c(C(C)(C)C)c1		inactive: 1.23%
S=C(c1ccc(-c2ccccc2Cl)o1)N1CCCCC1	inconclusive: 35.5 µM [inhibitor, single point]	
CCCS(=O)(=O)NC(=O)C1(C)CCN(C(=O)c2ccnc(Cl)c2)C1 (stereo not given)		inactive: 28.2%
COc1ccc(CNC(=O)C2CCN(Cc3nc(-c4ccc(OC)c(OC)c4)oc3C)CC2)cc1	inconclusive: 35.5 µM [inhibitor, single point]	
CCCCNc1c(-c2ccc(-c3ccc(OC)cc3)c(OC)c2)nc2ccccn12	inconclusive: 15.8 µM [inhibitor, partial curve, poor fit]	
CC(C)COC(=O)N1C(COCc2ccccc2)CCC=CS1(=O)=O (stereo not given)	inconclusive: 35.5 µM [inhibitor, single point]	
CCc1ccc(NC(=O)C(C)OC(=O)Cc2cc(OC)c(OC)c(OC)c2)cc1 (stereo not given)		inactive: 3.44%
O=C(COC(=O)/C=C/c1ccco1)Nc1ccccc1		inactive: -2.28%
CN1CCN(c2nc(-c3cccnc3)nc3scc(-c4ccccc4)c23)CC1		inactive: 21.7%
COc1cccc(NC(=O)N2CCC(n3c(C)nc4cccnc43)CC2)c1		inactive: 36%
CC(=O)/C(=N/Nc1ccc(Br)cc1)N1CCCc2ccccc21	inconclusive: 17.8 µM [inhibitor, single point]	
COc1cccc(Cn2c(=O)n(-c3ccc(C)c(F)c3)c(=O)c3sc4ccccc4c32)c1		inactive: 0.298%
O=C(CSc1nnc(-c2ccc(F)cc2)c2ccccc12)Nc1c(F)cccc1F	inconclusive: 35.5 µM [inhibitor, single point]	
C=C1C(O)[C@@H]2O[C@]3(CC[C@H](/C=C/C(C)[C@@H]4CC(C)=CC5(O[C@H](C[C@@](C)(O)CO)CCC5O)O4)O3)CC[C@H]2O[C@@H]1C(O)CC(C)[C@H]1OC2(CCCCO2)CCC1C (stereo not given in full)	active: 7.94 µM	
Cc1ccc2oc(C(=O)N(Cc3cccc(F)c3)C3CCS(=O)(=O)C3)c(C)c2c1 (stereo not given)	inconclusive: 8.91 µM [inhibitor, partial curve]	
O=C(CN(Cc1ccccc1)S(=O)(=O)c1ccc2c(c1)OCCO2)N/N=C/c1ccc(F)cc1	inconclusive: 35.5 µM [inhibitor, single point]	
O=C(NC1CC1)c1ccc(NS(=O)(=O)c2ccc(F)cc2)cc1	inconclusive: 10 µM [inhibitor, single point]	
COc1ccc(S[C@@H](CCN2CC[C@H](NC(=O)OCc3ccccc3)CCC2=O)c2ccccc2)cc1	active: 12.6 µM	
COc1ccc(N2CCN(C(=O)c3cc(S(=O)(=O)N4CCCCCC4)cn3C)CC2)cc1	inconclusive: 25.1 µM [inhibitor, partial curve, poor fit]	
Cc1ccnc(NC(=O)c2ccc(S(=O)(=O)c3ccccc3)cc2)c1	inconclusive: 11.2 µM [inhibitor, partial curve, poor fit]	

Structure (SMILES)	Potency	activity, negative = inhibition
COc1cccc(OCCCOc2ccccc2C(C)C)c1	inconclusive: 17.8 µM [inhibitor, single point]	
Nc1ccc(C(=O)N/N=C/c2cn(Cc3cccc(F)c3)c3ccccc23)cc1	active: 1.26 µM	
O=C(/C=C/c1ccccc1)NC(=S)Nc1ccccc1		inactive: -6.56%
O=C(CCc1cn(Cc2ccccc2F)c2ccccc12)NCc1ccc(Cl)cc1	inconclusive: 7.08 µM [inhibitor, full curve, poor fit]	
CCN(C(=O)CSc1nnc(Cn2nnc3ccccc32)o1)c1nc(C)cs1		inactive: 2.31%
Cc1ccccc1CNC(=O)c1ccc(Cn2c(SCc3cccc(F)c3)nc3cccnc32)cc1		inactive: -29.6%
N#CN(Cc1ccccc1)Cc1ccccc1		inactive: -0.728%
CCCCN(CCCNC(=S)NCCCc1cnc[nH]1)c1ccc(Br)cn1	inconclusive: 22.4 µM [inhibitor, single point]	
COc1ccc(CNc2cccc3[nH]c(C(F)(F)F)nc23)cc1	inconclusive: 20 µM [inhibitor, single point]	
CC(=O)N(C(C)=O)c1nc(-c2ccccc2)cn1/N=C/c1cccc([N+](=O)[O-])c1		inactive: -14.7%
COc1ccc(S(=O)(=O)N2CCCCCC2)cc1C(=O)N(C)Cc1ccc(OC)c(OC)c1OC		inactive: -29%
CN(CC(=O)Nc1ccccc1Cl)C(=O)c1cccc(S(=O)(=O)N2CCN(c3ccc(F)cc3)CC2)c1	inconclusive: 20 µM [inhibitor, single point]	
COc1cc2c(cc1Cl)C(=O)C(F)(c1ccccc1)C(=O)N2 (stereo not given)	inconclusive: 35.5 µM [inhibitor, single point]	
Cc1onc(-c2ccccc2Cl)c1C(=O)Nc1nnc(-c2ccc(Br)cc2)s1	inconclusive: 31.6 µM [inhibitor, single point]	
O=C(NCc1ccccc1)C1Cc2c(-c3ccc(Cl)cc3)ccnc2O1 (stereo not given)	inconclusive: 7.08 µM [inhibitor, partial curve]	
CSc1ccc(CNc2ncc(-c3cccc([N+](=O)[O-])c3)n2C)cc1	inconclusive: 35.5 µM [inhibitor, single point]	
CCOC(=O)c1cc(-c2ccccc2)n(CC(=O)Nc2ccc(OC)cc2OC)c1C		inactive: -3.75%
COc1ccc(OCCCN2CCCC(C)C2)cc1 (stereo not given)		inactive: 9.95%
CCN(CC)S(=O)(=O)c1ccc(N(C)Cc2cccc(OC)c2OC)nc1	inconclusive: 6.31 µM [inhibitor, single point]	
CC(OC(=O)c1cnc(Cl)c(Cl)c1)C(=O)NCc1ccccc1 (stereo not given)		inactive: -8.28%
Cc1cc(C(=O)CCl)c(C)n1-c1cccc(S(=O)(=O)N2CCOCC2)c1	inconclusive: 35.5 µM [inhibitor, single point]	
Cc1ccc2[nH]c3c(c2c1)CN(C(=O)CN1CCN(c2cccc(C)c2C)CC1)CC3	inconclusive: 35.5 µM [inhibitor, single point]	
COc1ccccc1CNC(=O)C1CC2Cn3c(nc4ccccc43)C2N1C (stereo not given)	inconclusive: 15.8 µM [inhibitor, single point]	
Cc1nc2ccn(Cc3cccs3)c(=O)c2cc1C(=O)NCc1ccccc1		inactive: -43.8%

Structure (SMILES)	Potency	activity, negative = inhibition
Cc1ccc(Nc2sc(C(=O)c3ccccc3)c(N)c2C(=O)NC(C)C)cc1	inconclusive: 0.251 µM [inhibitor, full curve]	
COC(=O)c1ccc(C(=O)Nc2ccc(C(C)C)cc2N)cc1		inactive: 0%
COc1ccccc1-c1cc(C(=O)NCc2ccc(F)cc2)no1		inactive: 2.83%
NC(=O)C(c1ccc(Cl)cc1)c1ccc(Sc2ccc(Cl)cc2)nn1 (stereo not given)	inconclusive: 35.5 µM [inhibitor, single point]	
COc1ccccc1Nc1nc(Cl)nc(NC(C)(C)C)n1		inactive: 5.31%
Cc1cccc(OCC(=O)Nc2ccccc2N2CCCCC2)c1	inconclusive: 22.4 µM [inhibitor, single point]	
CC(=O)OC(C)C1C2=C(C(=O)CC1(C)O)C(=O)c1c(ccc(-c3ccc4c(c3O)C(=O)C3=C(C4=O)C(C(C)OC(C)=O)C(C)(O)CC3=O)c1O)C2=O (stereo not given)	inconclusive: 0.112 µM [inhibitor, full curve, poor fit]	
COc1ccccc1CNCc1cc(Br)ccc1OC	inconclusive: 3.98 µM [inhibitor, single point]	
CCOc1ccc(NC(=S)N(CCc2c(C)[nH]c3ccccc23)Cc2ccco2)cc1	inconclusive: 11.2 µM [inhibitor, single point]	
COc1ccc(Cn2ccc3nc(C)c(C(=O)N4CCN(c5ccccc5)CC4)cc3c2=O)cc1		inactive: -5.16%
CCCCn1nnnc1C(c1cccs1)N1CCN(C/C=C/c2ccccc2)CC1 (stereo not given)	inconclusive: 12.6 µM [inhibitor, partial curve, poor fit]	
O=C(Nc1cccc(Cl)c1)c1cc(S(=O)(=O)NCCc2ccc(Cl)cc2)ccc1F	active: 11.2 µM	
CCNc1nc(=S)nc(NC(C)C)[nH]1	inconclusive: 1.26 µM [inhibitor, partial curve, poor fit]	
Cc1c(O)c(=O)ccn1Cc1ccccc1		inactive: -14.7%
CC(=O)Nc1ccc(S(=O)(=O)Oc2ccc(Br)cc2C(=S)N2CCOCC2)cc1	inconclusive: 0.631 µM [inhibitor, full curve, poor fit]	
COc1ccc(CCN=C(N)C(C)c2ccccc2)cc1OC (stereo not given)		inactive: -9.6%
O=C1c2ccccc2C(=O)N1/N=C/c1ccc(Oc2ccc([N+](=O)[O-])cn2)cc1	inconclusive: 35.5 µM [inhibitor, single point]	
CN(C)Cc1c(C(=O)N/N=C/c2ccco2)nnn1-c1nonc1N		inactive: 1.81%
COC(CN(C)S(=O)(=O)c1cc2c3c(c1)CCC(=O)N3CCC2)OC	inconclusive: 3.16 µM [inhibitor, single point]	
Cc1nn(Cc2cccc(C(=O)NC34CC5CC(CC(C5)C3)C4)c2)c(C)c1Br	inconclusive: 35.5 µM [inhibitor, single point]	
CN(C)/C=C(/C(=O)c1ccccc1)S(=O)(=O)c1ccc(Cl)cc1	inconclusive: 35.5 µM [inhibitor, single point]	
O=C(c1cnn2c(C(F)F)cc(-c3ccccc3)nc12)N1CCCCC1c1cccnc1 (stereo not given)		inactive: -18.7%
